Several values for one entry are separate records, joined by “and”; a condition that tells them apart may be missing. Equal values may be shown once.
Experiments:
R132H IDH1 [1] = biological target: T1, R132H IDH1 (Homo sapiens, UniProt O75874, R132H); experiment: CPMG-edited 1H NMR ligand binding, R132H IDH1; details: for binding to R132H IDH1: without metal ions, NMR, non-denaturing MS, DSF; for effect on binding of 2OG/NOG with R132H IDH1: with Mg^2+ or Ca^2+ (10 mM), inhibitor 50 µM
T1 construct: made in house; host or cells: Escherichia coli BL21(DE3) pLyS
T1 sequence (O75874 2-414 R132H): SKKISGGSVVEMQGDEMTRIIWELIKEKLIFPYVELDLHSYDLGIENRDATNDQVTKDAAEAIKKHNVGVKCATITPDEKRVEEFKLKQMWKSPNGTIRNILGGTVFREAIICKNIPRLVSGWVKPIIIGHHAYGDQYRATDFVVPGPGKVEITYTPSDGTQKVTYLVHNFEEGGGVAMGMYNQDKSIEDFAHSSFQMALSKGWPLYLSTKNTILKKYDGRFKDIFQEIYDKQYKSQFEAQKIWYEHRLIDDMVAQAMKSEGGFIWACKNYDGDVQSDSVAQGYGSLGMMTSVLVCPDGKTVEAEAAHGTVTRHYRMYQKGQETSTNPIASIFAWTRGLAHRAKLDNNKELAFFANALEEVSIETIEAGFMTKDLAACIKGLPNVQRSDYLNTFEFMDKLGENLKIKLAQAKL

R132H IDH1 [2] = biological target: T1, R132H IDH1; experiment: Absorbance assay: kinetics of reductive reaction (2OG to 2HG) by R132H IDH1; assay type: biochemical
R132H IDH1 [3] = biological target: T1, R132H IDH1; experiment: Non-denaturing protein MS, R132H IDH1; assay type: binding; details: for molecules observed to bind to the R132H IDH1 dimer / effect of inhibitor addition on 2OG/NOG binding to R132H IDH1: without divalent metal ions; for molecules observed to bind to the R132H IDH1 dimer: tenfold molar excess; for binding stoichiometry: R132H IDH1 dimer with two NADPHs bound
R132H IDH1 [4] = details: cited from earlier work; for IC50: read-out: IC50
[5] = test system: LN18 glioblastoma cells stably overexpressing R132H IDH1; experiment: Intracellular 2HG levels by AEC-MS in inhibitor-treated LN18 cells; details: AGI-5198 (1 µM) or GSK864 (100 nM), 0.05–10 mM MgSO4, 19 h
R132H IDH1 [6] = biological target: T1, R132H IDH1; experiment: Absorbance assay: effect of metal ions on catalysis and inhibition of R132H IDH1; assay type: biochemical; details: R132H IDH1, metal ions 10 mM in the presence of 10 mM Mg^2+
R132H IDH1 [7] = biological target: T1, R132H IDH1; experiment: Differential scanning fluorimetry (DSF) thermal shift, R132H IDH1; assay type: binding; details: R132H IDH1, divalent metal ions (5 mM), 50 mM Tris-HCl, pH 7.5
R132H IDH1 [8] = biological target: T1, R132H IDH1; experiment: 1H NMR reaction monitoring, R132H IDH1; assay type: biochemical; details: R132H IDH1, 10 mM CaCl2, equimolar to Mg2+
[9] = R132H IDH1, reductive reaction (2OG to 2HG) with Mg^2+ (10 mM MgCl2)
[10] = R132H IDH1, reductive reaction (2OG to 2HG) with Mn^2+ (10 mM MnCl2)

O=C(O)CCC(O)C(=O)O (stereo not drawn) [2HG, 2-hydroxyglutarate]
binding to R132H IDH1 (R132H IDH1 [1]): not observed to bind

O=C(O)CCC(=O)C(=O)O [2OG, 2-oxoglutarate]
Velocity (R132H IDH1 [2]; Fig. S2j, [2OG] 375 μM): 0.09335 µM/s and 0.1062 µM/s and 0.0565 µM/s | Velocity (R132H IDH1 [2]; Fig. S2j, [2OG] 750 μM): 0.1098 µM/s and 0.12 µM/s and 0.1458 µM/s | Velocity (R132H IDH1 [2]; Fig. S2j, [2OG] 1500 μM): 0.1295 µM/s and 0.1974 µM/s and 0.2025 µM/s | Velocity (R132H IDH1 [2]; Fig. S2j, [2OG] 6000 μM): 0.2211 µM/s and 0.2241 µM/s and 0.2171 µM/s | Velocity (R132H IDH1 [2]; Fig. S2j, [2OG] 12000 μM): 0.213 µM/s and 0.2257 µM/s and 0.2451 µM/s | Velocity (R132H IDH1 [2]; Fig. S2j, [2OG] 24000 μM): 0.1965 µM/s and 0.2179 µM/s and 0.2281 µM/s | Velocity (R132H IDH1 [2]; Fig. S3g, MnCl2 as metal, [2OG] 46.875 μM): 0.04966 µM/s and 0.05457 µM/s | Velocity (R132H IDH1 [2]; Fig. S3g, MnCl2 as metal, [2OG] 187.5 μM): 0.2372 µM/s and 0.2213 µM/s and 0.2255 µM/s | Velocity (R132H IDH1 [2]; Fig. S3g, MnCl2 as metal, [2OG] 375 μM): 0.2908 µM/s and 0.2809 µM/s and 0.2852 µM/s | Velocity (R132H IDH1 [2]; Fig. S3g, MnCl2 as metal, [2OG] 750 μM): 0.3538 µM/s and 0.3262 µM/s and 0.3736 µM/s | Velocity (R132H IDH1 [2]; Fig. S3g, MnCl2 as metal, [2OG] 1500 μM): 0.3806 µM/s and 0.3297 µM/s | Velocity (R132H IDH1 [2]; Fig. S3g, MnCl2 as metal, [2OG] 3000 μM): 0.3213 µM/s and 0.3264 µM/s and 0.3318 µM/s | Km (R132H IDH1 [2]; [9]): 652 ± 116 µM | Vmax (R132H IDH1 [2]; [9]): 236 ± 10 nM/s | Km (R132H IDH1 [2]; [10]): 175 ± 26 µM | Vmax (R132H IDH1 [2]; [10]): 390 ± 16 nM/s | molecules observed to bind to the R132H IDH1 dimer (R132H IDH1 [3]): one | binding to R132H IDH1 (R132H IDH1 [1]): bind weakly

N#Cc1ccnc(N2C(=O)CC[C@H]2C(=O)N(c2cncc(F)c2)[C@H](C(=O)NC2CC(F)(F)C2)c2ccccc2Cl)c1 [AG-120, Ivosidenib]
binding stoichiometry (R132H IDH1 [3]): one inhibitor per IDH1 dimer | effect of inhibitor addition on 2OG/NOG binding to R132H IDH1 (R132H IDH1 [3]): does not affect | effect on binding of 2OG/NOG with R132H IDH1 (R132H IDH1 [1]): weakens the binding

Cc1ccccc1C(C(=O)NC1CCCCC1)N(C(=O)Cn1ccnc1C)c1cccc(F)c1 (stereo not drawn) [AGI-5198]
mode of inhibition (R132H IDH1 [4]): competitive with 2OG | IC50 (R132H IDH1 [4]): 70 nM | 2HG production by R132H IDH1 in cells [5]: substantially suppressed 2HG production

[Ca+2].[Cl-].[Cl-] [Ca^2+, CaCl2]
inhibition by metal ion (R132H IDH1 [6]): inhibiting | thermal shift (shift in Tm) (R132H IDH1 [7]): −1.2 °C | activity/inhibition in conversion of 2OG to 2HG (R132H IDH1 [8]): not catalytically active and inhibits

COc1c(C)cc(NC(=O)c2nn(Cc3ccc(F)cc3)c3c2CN(C(=O)c2ccc[nH]2)C[C@]3(C)C(N)=O)cc1C [GSK864]
binding stoichiometry (R132H IDH1 [3]): two inhibitors per IDH1 dimer | effect of inhibitor addition on 2OG/NOG binding to R132H IDH1 (R132H IDH1 [3]): does not affect | effect on binding of 2OG/NOG with R132H IDH1 (R132H IDH1 [1]): weakens the binding | IC50 (R132H IDH1 [4]): 4.6 nM | 2HG production by R132H IDH1 in cells [5]: substantially suppressed 2HG production

O=C(O)CNC(=O)C(=O)O [NOG, N-oxalylglycine]
molecules observed to bind to each R132H IDH1 dimer (R132H IDH1 [3]; in the presence of MgCl2): two | molecules observed to bind to the R132H IDH1 dimer (R132H IDH1 [3]): one | binding to R132H IDH1 (R132H IDH1 [1]): bind weakly
